According to US20200362026A1 (INSTITUTE FOR RESEARCH IN BIOMEDICINE, published 2020):

Key:
[1] = biological target: T1, human GM-CSF (granulocyte macrophage-colony stimulating factor) (human, UniProt P04141); test: ELISA on GM-CSF
T1 construct: Soluble cytokine used in ELISA, SPR, TF-1 bioassay and immune complex formation; also called recombinant GM-CSF

[2] = biological target: T1, human GM-CSF (granulocyte …); test: cell-based or functional assay

T1 sequence (P04141 18-144 limits assumed): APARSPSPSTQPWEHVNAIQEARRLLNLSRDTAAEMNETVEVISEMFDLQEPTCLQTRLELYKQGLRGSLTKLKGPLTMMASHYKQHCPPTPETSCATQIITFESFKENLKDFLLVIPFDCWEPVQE

| Binder | EC50 [1] | IC90 less stringent conditions (50 pg/ml GM-CSF, 1,000 TF-1/well) [2] | IC90 more stringent conditions (500 pg/ml GM-CSF, 1,000 TF-1/well) [2] | IC90 stringent conditions (50 pg/ml GM-CSF, 10,000 TF-1/well) [2] | IC90 very stringent conditions (500 pg/ml GM-CSF, 10,000 TF-1/well) [2] |
| --- | --- | --- | --- | --- | --- |
| Ts2GC2c trispecific antibody (antibody, human IgG1, kappa, Trispecific hexavalent IgG1, construct type Ts2; specificities GCE536 + GCA7 + GCB59) heavy: EVQLVESGGDLVKAGGSLRLSCAVSGLSFSSSGMNWVRQAPGKGLEWISSISGSQNYKYYADSVKGRFVVSRDNARNFLYLQMDSLRAEDTAVYFCVGGFPYWLPPSDFSGFHVWGQGTTVTVSSGGGGSGGGGSGGGGSSYVLTQPPSVSVAPGQTASLTCGGTNIGSKSVHWYQQKAGQAPVLVVYADNDRPSGVPERFSGSNSGNTATLTISRVEAEDESDYFCQVWDGNTDHVVFGGGTKLTVLGGGGSGVQLVQSGGGLVQPGGSLRLSCAASGFTVSTNYMSWVRQAPGKGLEWVSILYAGGVTRYADSVKTRFTISRDNSKNTLFLQMNALSAEDTAIYYCAKHYDSGYSTIDHFDSWGQGTLVTVSSASTKGPSVFPLAPSSKSTSGGTAALGCLVKDYFPEPVTVSWNSGALTSGVHTFPAVLQSSGLYSLSSVVTVPSSSLGTQTYICNVNHKPSNTKVDKRV[human IgG1 Fc not spelt out] light: QLQLVQSGTEVKKPGASVKVSCKSSGYVFTSYYLVWVRQAPGQGLEWMATISPGDVNTSYEQRFQGRVTVTTDASTNTVDMELRSLRSEDTAVYYCARGPRSKPPYLYFALDVWGQGTAVTVSSGGGGSGGGGSGGGGSEIVLTQSPGTLSLSPGETAILSCRASQSVSSSLLAWYQQKPGQAPRLLIYGASNRATGIRGRFSGSGSGTDFTLTISRLEPEDFVLYYCQHYGSRVTFGQGTKLEIKGGGGSDIQMTQSPDSVAVSLGERATINCKSSQSVFYTSKNKNYLAWFQQKPGQPPKLLIYWASTRESGVPDRFSGSGSGTDFTLTISSLRPEDVAVYYCQQYYSTPFTFGPGTKVDIKRTVAAPSVFIFPPSDEQLKSGTASVVCLLNNFYPREAKVQWKVDNALQSGNSQESVTEQDSKDSTYSLSSTLTLSKADYEKHKVYACEVTHQGLSSPVTKSFNRGEC | 0.0207 µg/mL | 0.546 ng/mL | 4.28 ng/mL | 0.69 ng/mL | 5.86 ng/mL |
| Ts3GC2e trispecific antibody (antibody, human IgG1, kappa, Trispecific hexavalent IgG1, construct type Ts3; specificities GCE536 + GCA7 + GCB59) heavy: EVQLVESGGDLVKAGGSLRLSCAVSGLSFSSSGMNWVRQAPGKGLEWISSISGSQNYKYYADSVKGRFVVSRDNARNFLYLQMDSLRAEDTAVYFCVGGFPYWLPPSDFSGFHVWGQGTTVTVSSGGGGSGGGGSGGGGSSYVLTQPPSVSVAPGQTASLTCGGTNIGSKSVHWYQQKAGQAPVLVVYADNDRPSGVPERFSGSNSGNTATLTISRVEAEDESDYFCQVWDGNTDHVVFGGGTKLTVLGGGGSGVQLVQSGGGLVQPGGSLRLSCAASGFTVSTNYMSWVRQAPGKGLEWVSILYAGGVTRYADSVKTRFTISRDNSKNTLFLQMNALSAEDTAIYYCAKHYDSGYSTIDHFDSWGQGTLVTVSSASTKGPSVFPLAPSSKSTSGGTAALGCLVKDYFPEPVTVSWNSGALTSGVHTFPAVLQSSGLYSLSSVVTVPSSSLGTQTYICNVNHKPSNTKVDKRV[human IgG1 Fc not spelt out]GGGGSQLQLVQSGTEVKKPGASVKVSCKSSGYVFTSYYLVWVRQAPGQGLEWMATISPGDVNTSYEQRFQGRVTVTTDASTNTVDMELRSLRSEDTAVYYCARGPRSKPPYLYFALDVWGQGTAVTVSSGGGGSGGGGSGGGGSEIVLTQSPGTLSLSPGETAILSCRASQSVSSSLLAWYQQKPGQAPRLLIYGASNRATGIRGRFSGSGSGTDFTLTISRLEPEDFVLYYCQHYGSRVTFGQGTKLEIK light: DIQMTQSPDSVAVSLGERATINCKSSQSVFYTSKNKNYLAWFQQKPGQPPKLLIYWASTRESGVPDRFSGSGSGTDFTLTISSLRPEDVAVYYCQQYYSTPFTFGPGTKVDIKRTVAAPSVFIFPPSDEQLKSGTASVVCLLNNFYPREAKVQWKVDNALQSGNSQESVTEQDSKDSTYSLSSTLTLSKADYEKHKVYACEVTHQGLSSPVTKSFNRGEC | 0.0407 µg/mL | 0.296 ng/mL | 3.29 ng/mL | 0.272 ng/mL | 3.68 ng/mL |
| Bs3GC1b bispecific antibody (bispecific antibody, human IgG1, kappa, Bispecific tetravalent IgG1, construct type Bs3; specificities GCE536 + GCA7) heavy: GVQLVQSGGGLVQPGGSLRLSCAASGFTVSTNYMSWVRQAPGKGLEWVSILYAGGVTRYADSVKTRFTISRDNSKNTLFLQMNALSAEDTAIYYCAKHYDSGYSTIDHFDSWGQGTLVTVSSASTKGPSVFPLAPSSKSTSGGTAALGCLVKDYFPEPVTVSWNSGALTSGVHTFPAVLQSSGLYSLSSVVTVPSSSLGTQTYICNVNHKPSNTKVDKRV[human IgG1 Fc not spelt out]GGGGSQLQLVQSGTEVKKPGASVKVSCKSSGYVFTSYYLVWVRQAPGQGLEWMATISPGDVNTSYEQRFQGRVTVTTDASTNTVDMELRSLRSEDTAVYYCARGPRSKPPYLYFALDVWGQGTAVTVSSGGGGSGGGGSGGGGSEIVLTQSPGTLSLSPGETAILSCRASQSVSSSLLAWYQQKPGQAPRLLIYGASNRATGIRGRFSGSGSGTDFTLTISRLEPEDFVLYYCQHYGSRVTFGQGTKLEIK light: DIQMTQSPDSVAVSLGERATINCKSSQSVFYTSKNKNYLAWFQQKPGQPPKLLIYWASTRESGVPDRFSGSGSGTDFTLTISSLRPEDVAVYYCQQYYSTPFTFGPGTKVDIKRTVAAPSVFIFPPSDEQLKSGTASVVCLLNNFYPREAKVQWKVDNALQSGNSQESVTEQDSKDSTYSLSSTLTLSKADYEKHKVYACEVTHQGLSSPVTKSFNRGEC | 0.0716 µg/mL | 0.555 ng/mL | 4.37 ng/mL | 0.712 ng/mL | 5.93 ng/mL |
| Bs2GC1d bispecific antibody (bispecific antibody, human IgG1, kappa, Bispecific tetravalent IgG1, construct type Bs2; specificities GCE536 + GCA7) heavy: GVQLVQSGGGLVQPGGSLRLSCAASGFTVSTNYMSWVRQAPGKGLEWVSILYAGGVTRYADSVKTRFTISRDNSKNTLFLQMNALSAEDTAIYYCAKHYDSGYSTIDHFDSWGQGTLVTVSSASTKGPSVFPLAPSSKSTSGGTAALGCLVKDYFPEPVTVSWNSGALTSGVHTFPAVLQSSGLYSLSSVVTVPSSSLGTQTYICNVNHKPSNTKVDKRV[human IgG1 Fc not spelt out] light: QLQLVQSGTEVKKPGASVKVSCKSSGYVFTSYYLVWVRQAPGQGLEWMATISPGDVNTSYEQRFQGRVTVTTDASTNTVDMELRSLRSEDTAVYYCARGPRSKPPYLYFALDVWGQGTAVTVSSGGGGSGGGGSGGGGSEIVLTQSPGTLSLSPGETAILSCRASQSVSSSLLAWYQQKPGQAPRLLIYGASNRATGIRGRFSGSGSGTDFTLTISRLEPEDFVLYYCQHYGSRVTFGQGTKLEIKGGGGSDIQMTQSPDSVAVSLGERATINCKSSQSVFYTSKNKNYLAWFQQKPGQPPKLLIYWASTRESGVPDRFSGSGSGTDFTLTISSLRPEDVAVYYCQQYYSTPFTFGPGTKVDIKRTVAAPSVFIFPPSDEQLKSGTASVVCLLNNFYPREAKVQWKVDNALQSGNSQESVTEQDSKDSTYSLSSTLTLSKADYEKHKVYACEVTHQGLSSPVTKSFNRGEC | 0.0226 µg/mL | 3.08 ng/mL | 9.6 ng/mL | 6.3 ng/mL | 15.9 ng/mL |
| Bs1GC3a bispecific antibody (bispecific antibody, human IgG1, kappa, Bispecific tetravalent IgG1, construct type Bs1; specificities GCA7 + GCB59; also called BsGC3a) heavy: EVQLVESGGDLVKAGGSLRLSCAVSGLSFSSSGMNWVRQAPGKGLEWISSISGSQNYKYYADSVKGRFVVSRDNARNFLYLQMDSLRAEDTAVYFCVGGFPYWLPPSDFSGFHVWGQGTTVTVSSGGGGSGGGGSGGGGSSYVLTQPPSVSVAPGQTASLTCGGTNIGSKSVHWYQQKAGQAPVLVVYADNDRPSGVPERFSGSNSGNTATLTISRVEAEDESDYFCQVWDGNTDHVVFGGGTKLTVLGGGGSGVQLVQSGGGLVQPGGSLRLSCAASGFTVSTNYMSWVRQAPGKGLEWVSILYAGGVTRYADSVKTRFTISRDNSKNTLFLQMNALSAEDTAIYYCAKHYDSGYSTIDHFDSWGQGTLVTVSSASTKGPSVFPLAPSSKSTSGGTAALGCLVKDYFPEPVTVSWNSGALTSGVHTFPAVLQSSGLYSLSSVVTVPSSSLGTQTYICNVNHKPSNTKVDKRV[human IgG1 Fc not spelt out] light: DIQMTQSPDSVAVSLGERATINCKSSQSVFYTSKNKNYLAWFQQKPGQPPKLLIYWASTRESGVPDRFSGSGSGTDFTLTISSLRPEDVAVYYCQQYYSTPFTFGPGTKVDIKRTVAAPSVFIFPPSDEQLKSGTASVVCLLNNFYPREAKVQWKVDNALQSGNSQESVTEQDSKDSTYSLSSTLTLSKADYEKHKVYACEVTHQGLSSPVTKSFNRGEC | 0.0468 µg/mL | 0.744 ng/mL | 4.64 ng/mL | 0.737 ng/mL | 13.3 ng/mL |
